Data on 45 sequences can be found in the supplement of paper PMC11417369.

The other results are listed elsewhere or left out.

The test system of the assay is PfHDP1 homeodomain (GST-tagged). The assay is described as follows: gcPBM binding intensity (ln(normalized median fluorescence intensity)); higher = stronger DNA binding. Summed up:
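DNA-binding domains from P. falciparum, fused to GST and produced in E. coli, were put on an Agilent 4 × 180k double-stranded probe array for 1 h in 1× PBS holding 1% milk, 0.2 mg/ml BSA, 0.5% salmon testes DNA and 0.03% Triton X-100. Probes were primer-extended, 36 bp long and drawn from intergenic genomic regions, with negative controls included. After Alexa488 anti-GST antibody detection and a 488 nm scan, binding intensity was set as the highest Masliner-normalised natural-log median intensity across replicate spots of either probe orientation.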
Consider “AAAATGTATTCTCTCATGCACACTTTCTTTAAGGGA [CACACA_site2196]”, for which the “gcPBM binding intensity (ln)” value amounted to 8.5.

With “ATACACATTCTTCCGACATAATAAGAAAAAGAAAAA [CACACA_negctrl_site9]”, the “gcPBM binding intensity (ln)” value is 6.32.

In the case of “TATAAACCTTTTTGCACGCACACAAAAAAAAAATAA [CACACA_site168]”, the “gcPBM binding intensity (ln)” value was 9.61.

Take “AAACATATATACATATGTACATATATACATATATGT [XGTACX_site5779]”: the “gcPBM binding intensity (ln)” value is 6.53.

GACTATAATGTTTTGGTGCGTCATGTTATGGTCATC: the “gcPBM binding intensity (ln)” value turned out to be 6.6.

Turning to “GATTAACAACATATTAGTACATATATTATATATATA [XGTACX_site7646]”, the “gcPBM binding intensity (ln)” value turned out to be 7.3.

On to “TTCGGAAAAATTAAAGCACACAAAAAAAAATAAAAA [CACACA_site8296]”, for which the “gcPBM binding intensity (ln)” value was 6.55.

As for “CAAAAGGATATGCACACACACACACGGATATTTATA [CACACA_site7099]”, the “gcPBM binding intensity (ln)” value was found to be 10.1.

In the case of TTTTGTTATTAGAGGGTGCTTATAATGAACTCCTAC, the “gcPBM binding intensity (ln)” value came to 6.36.

Regarding “TCAATCATCTTATATAGTACACATAAAAGTATTATA [XGTACX_site8513]”, the “gcPBM binding intensity (ln)” value came to 6.17.

With “GACAAAATGATAGGGACACACAATATCAATGTTTAA [CACACA_site765]”, the “gcPBM binding intensity (ln)” value was found to be 6.01.

In the case of ATTACATTAATAAGAGTGCATTATATAAGTTTTATG, the “gcPBM binding intensity (ln)” value came to 8.58.

For AAAAAAAAAAATCCAGTGCATATATTTTTTACATAT, the “gcPBM binding intensity (ln)” value is 8.69.

As to “CCACTAATAAATATTACACACATATAGATTTATATT [CACACA_site7465]”, the “gcPBM binding intensity (ln)” value came out at 6.65.

With “TTATTTTTTTTATATATATGTATAAATATATATATA [XGTACX_negctrl_site441]”, the “gcPBM binding intensity (ln)” value is 7.84.

“AGGCACACAAACATATGTACACATATATATATATAT [XGTACX_site4723]”: the “gcPBM binding intensity (ln)” value amounted to 9.26.

As for “ATATAACATATCAATTGTACGTATTGATAATATATA [XGTACX_site2504]”, the “gcPBM binding intensity (ln)” value was determined as 6.28.

“ATATTTATATGGTTTGCACACATAACAACTATGGTT [CACACA_site3631]”: the “gcPBM binding intensity (ln)” value came to 9.75.

On to “TTTTGTTTTAATTTTATTTGATTTTATTTGATTTAT [CACACA_negctrl_site692]”, for which the “gcPBM binding intensity (ln)” value is 6.68.

Regarding “TTTATTGAACGTACACATATATATATGTATATATTT [TGCATGCA_negctrl_site141]”, the “gcPBM binding intensity (ln)” value stood at 6.71.

Consider “AAATATTATTTATTTACACACCAATCTTCTTTTCTT [CACACA_site3990]”, for which the “gcPBM binding intensity (ln)” value is 6.43.

On to “TACGTTCTAATATATACACACCTGGTATTAATTATG [CACACA_site5260]”, for which the “gcPBM binding intensity (ln)” value stood at 6.64.

For “ATATATATAAAATATACACACATACTGTTCATTTAA [CACACA_site6149]”, the “gcPBM binding intensity (ln)” value came out at 6.63.

Turning to “TTTTATTATTAATTTCTTTTTTCTCATCACTTTCAA [XGTACX_negctrl_site117]”, the “gcPBM binding intensity (ln)” value stood at 6.45.

Regarding “TTTACAAAAAATTATACACACACGTACATATAAATA [CACACA_site945]”, the “gcPBM binding intensity (ln)” value is 6.6.

For the sequence “TAATTTATGAGTAATACACACACTTGTGGATATATT [CACACA_site3790]”, the “gcPBM binding intensity (ln)” value was found to be 6.73.

For the sequence “AAAAAAAAAAATTACACACATACATATAATAATAAT [CACACA_site2193]”, the “gcPBM binding intensity (ln)” value is 6.55.

As to “AAAAACTTAATATTCACACATATATATATATATATA [CACACA_site5240]”, the “gcPBM binding intensity (ln)” value turned out to be 9.48.

“CGTATATATATATACACACACATATATATATGTAAA [CACACA_site195]”: the “gcPBM binding intensity (ln)” value came to 6.81.

“TATTTCCATTCATAATTTTGTAGAATATATAACCGT [CACACA_negctrl_site1531]”: the “gcPBM binding intensity (ln)” value was 6.4.

For the sequence “AAATAAAGATATATATATATATATATATATAATTTT [CACACA_negctrl_site30]”, the “gcPBM binding intensity (ln)” value came to 7.02.

Turning to “AATATAAAAAGGCACACACACAAAAAAAAAAAAAAA [CACACA_site896]”, the “gcPBM binding intensity (ln)” value amounted to 6.56.

Consider “AAATATTTTGCATACACATGCAAATATTTTTTACAT [TGCATGCA_site554]”, for which the “gcPBM binding intensity (ln)” value is 7.05.

Turning to “AAAATGTGCATATTTGCACACTTCAATATATATATA [CACACA_site1791]”, the “gcPBM binding intensity (ln)” value came out at 11.2.

“CATAAATCAGCCATAACACACATACCTATATACATA [CACACA_site6324]”: the “gcPBM binding intensity (ln)” value amounted to 6.45.

Take “AATCTCAGAATATACTGTACTTTAAGAAAAAAAAAA [XGTACX_site110]”: the “gcPBM binding intensity (ln)” value amounted to 6.14.

In the case of “AATATATATTTGTGTACACATTATATATATATATAT [CACACA_site6103]”, the “gcPBM binding intensity (ln)” value is 9.23.

Take “AAAATTTAAATAGGAAGTACGTTCACTAAGAAAATA [XGTACX_site6546]”: the “gcPBM binding intensity (ln)” value amounted to 6.87.

For the sequence “TGAAAGAACCTGATTACACACATAAGTTATAAATAT [CACACA_site6165]”, the “gcPBM binding intensity (ln)” value came out at 6.19.

On to “TTCTTTATTTTTTCTACACACATTATGTATTCAAAG [CACACA_site3527]”, for which the “gcPBM binding intensity (ln)” value was determined as 7.51.

As for “TGAAAGAATGTTAATAGTACACACAATTATTATATA [XGTACX_site7936]”, the “gcPBM binding intensity (ln)” value is 6.38.

Turning to “TAAGAACTATTCAGTAGTACCTATATGGATTACTAA [XGTACX_site4278]”, the “gcPBM binding intensity (ln)” value is 5.72.

“ATTGATATTGTATAATGTACAGGAAAAAAAAAAAAA [XGTACX_site526]”: the “gcPBM binding intensity (ln)” value worked out at 6.59.

With “GAAAATATTAAATGAAGTACAATATTTATGTTACTT [XGTACX_site8737]”, the “gcPBM binding intensity (ln)” value was determined as 6.

Consider TTTTATATTTTAAGAGTGCATTTTATATCTTTTTCT, for which the “gcPBM binding intensity (ln)” value was 7.98.
